Source: the DeepSol protein solubility set

Assay: soluble on expression in E. coli; label from the status in PepcDB or PDB records

Row | Sequence | soluble on expression in E. coli
1 | GAGGHKNLPAKGDLHIPVFENVNVRFSPDTYPDNYNEADGTGVYHLVNGRIILKKITLPEYKRNVSVSLKVTLASNGDRWDKSGSCFVLPKSSAINLLTIARDGMKFPSVDSLKLEKMVGIVPGKDYLPTVELMRFMTPFGIGHYSNNNDSLSSKRRPVYIPKWESNVTWQQDITDLYPLLEGEAYVGIYIDTWTSEGYLVNADIDVKESRLACDVLPKRHVEPLMNTVYYMGQSYPDIFARRDVSTDFTVPKGAKNIRLKYIVTGHGGHSGGDEFVQKRNIISVDGKEVLNFIPWRDDCASFRRFNPATGVWLIKRLASYIGEKGYTEKEVEEPLASSDLSRSNWCPGSDVVPEEAVIGTLAPGKHTFTVSIPEAQAVDGNKLNHWLVSAYLVWEE | soluble
2 | MADEDDYQDMDNDDFVDDNEMEDVIEEDPQRPDNEDEDDDNVDENFELFDQGKAVPTSEHVTTPFMTKYERARVLGTRALQIAMGAPVMVELEGETDPLEIARKELKQRRIPIIVRRYLPDGSYEDWPTDQLQLADW | soluble
3 | MAFAPPLPIRRRKVLIPRPRSRFLLVTCPKCGNRQVVFSHSTFRARCLNCGEVLVEPTGGKARILGKIERIYGLEHHHHHH | not soluble
4 | MGIDINHKYDRKVRRTEPKSQDVYLRLLVKLYRFLQRRTNKKFNRIILKRLFMSKINRPPLSLQRIARFFKAANQPESTIVVVGTVTDDARLLVVPKLTVCALHVTQTARERILKAGGEVLTFDQLALRSPTGKNTLLLQGRRTARTACKHFGKAPGVPHSHTRPYVRSKGRKFERARGRRSSCGYKKLEHHHHHH | soluble
5 | MGKIMKPGKVVLVLRGKYAGRKAVVVKQQDEGVSDRTYPHAIIAGIDRYPLKVTKDMGKKKIEKRNKLKPFLKVVSYTHLLPTRYSVDVAFDKTNINKEALKAPSKKRKALVEVKSKFEERYKTGKNKWFFTKLRF | not soluble
6 | MRMKIAELSLFQHDLPVKDGPYTMSYGEISALDTTLVKLVTDTGIVGWGETCPLGPNYAEAHAEGARAALGAMAQALIGTEVLPLAAHRAMDGALLGHGYAKAAVDMAVYDALGKSLGLRVAELLGGAVTELVPSYYAIGIETPEEAGRIAAERRAEGYPRVQLKVGGRAPEVDVASIRKVWEAIKGSGMRLAIDANRGWTTRDAIGVSQACADIPLVMEQPCASNDEMRALRGMLRHPLYMDETSFDVSTVIGAAGTGMVDGFGFKLTRLGGLQRMATARDICAARRLPHSCDDAWGGDILAAACTHLGATVEPSLLEGVWIAAPYIDGHYDDAAGIEIVGGHIALPAGPGLGIVPDEARFGAPVLVV | soluble
7 | MVDIAFELRKVIDSGKYTLGYRKTVQSLKMGGSKLIIIARNTRPDRKEDLEYYARLSGTPVYEFEGTNVELGTAVGKPHTVSVVSILDAGESRILALGGKE | soluble
